This note sets out measurements from PubChem BioAssay AID1745853 (National Center for Advancing Translational Sciences (NCATS), 2022).

Common to all, as to assay: Primary Screen for Target Class Profiling of Small Molecule Inhibitors of Methyltransferases
The target in assay [1] is Glycine N-methyltransferase (Homo sapiens) (UniProt Q14749). Particulars: purified enzyme, MTase-Glo SAH luminescence; measured here: GNMT inhibition; at 40 µM; stronger effect = lower value. The gist of the method: (§1)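 Each enzyme was reacted with SAM and its substrate, with compounds tested once at 40 uM; SAH formed was read by MTase-Glo luminescence.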
For assay [2], the target named is Guanidinoacetate N-methyltransferase (Homo sapiens) (UniProt Q14353). Particulars: purified enzyme, MTase-Glo SAH luminescence; measured here: GAMT inhibition; at 40 µM; stronger effect = lower value. Put shortly: as §1
Assay [3] deals with Histamine N-methyltransferase (Homo sapiens) (UniProt P50135). Particulars: purified enzyme, MTase-Glo SAH luminescence; measured here: HNMT inhibition; at 40 µM; stronger effect = lower value. The gist of the method:
as §1

In assay [4] the target is Nicotinamide N-methyltransferase (Homo sapiens) (UniProt P40261). Particulars: purified enzyme, MTase-Glo SAH luminescence; measured here: NNMT inhibition; at 40 µM; stronger effect = lower value. The gist of the method: as §1
Assay [5] addresses Phenylethanolamine N-methyltransferase (Homo sapiens) (UniProt P11086). Particulars: purified enzyme, MTase-Glo SAH luminescence; measured here: PNMT inhibition; at 40 µM; stronger effect = lower value. Put shortly: as §1

The structures appear in SMILES notation. This is one part of the list. Further columns of the screen follow, without active or inactive calls.
% is scaled to controls: 0 for no effect and ±100 for the full control effect.

As for `CC(C)OCCCNC(=O)C1(C)Cn2c(cc3ccccc32)C(=O)N1Cc1ccccc1F` (stereo not given), the activity change, negative = inhibition in assay [1] is 2.41%; in assay [2], 4.06%; in assay [3], -2.24%; in assay [4], 7.02%; in assay [5], 0.702%.

Take `CSCCC(=O)N1CCC(C2CCN(c3ncccn3)CC2)C1` (stereo not given): the activity change, negative = inhibition in assay [1] is -2.71%; in assay [2], 1.3%; in assay [3] it was 0.556%; in assay [4], -4.79%; in assay [5], 0.821%.

Regarding `CN1CCN(CCCNC(=O)c2cc3n(n2)CC(C)(C(=O)NC2CCCCCC2)N(C)C3=O)CC1` (stereo not given), the activity change, negative = inhibition in assay [1] was 4.07%; in assay [2], 0%; in assay [3], 1.71%; in assay [4] it was 4.79%; in assay [5], -0.523%.

`Cc1ccc(C(=O)N2CCC3(CC2)N=C(c2cccc(Br)c2)NO3)s1`: the activity change, negative = inhibition in assay [1] was -0.842%; in assay [2], -1.61%; in assay [3], -3.68%; in assay [4], -3.42%; in assay [5], -17.5%.

As for `CC(=O)OC1C(O)CC2(C)C(CCC3(C)C2CC=C2C4C5(CCC(CO[C@@H]6O[C@H](CO)[C@@H](O)[C@H](O)[C@H]6O)(OC5=O)C4(C)O)C(O)CC23C)C1(C)C` (stereo not given in full), the activity change, negative = inhibition in assay [1] is 2.99%; in assay [2] it was 6.21%; in assay [3], 5.29%; in assay [4], -6.08%; in assay [5], 4.65%.

Turning to `C[C@]12CC/C(=N\OCC(=O)O)C=C1CC[C@@H]1[C@@H]2[C@@H](O)C[C@@]2(C)[C@H]1CC[C@]2(O)C(=O)CO`, the activity change, negative = inhibition in assay [1] was 0.075%; in assay [2], 7.18%; in assay [3], 3.86%; in assay [4], -13.4%; in assay [5], -5.42%.

As to `Cc1ccc(C)c(N2C(=O)c3cc4occc4n3CC2(C)C(=O)NC2CCCCC2)c1` (stereo not given), the activity change, negative = inhibition in assay [1] was 3.24%; in assay [2], -7.19%; in assay [3], -14.7%; in assay [4], 9.65%; in assay [5] it was 0.955%.

As to `CC(=O)NCC(=O)N1C2CCC1c1cc(Nc3ncc(C(F)(F)F)c(NC4CCC4)n3)ccc12` (stereo not given), the activity change, negative = inhibition in assay [1] was 2.7%; in assay [2], 3.26%; in assay [3], -5.02%; in assay [4], -64.6%; in assay [5], 1.31%.

For the molecule `CCCn1c(=O)c2ccc(C(=O)NC(C)C)cc2n2c(=O)n(CC(=O)NC(C)CC)nc12` (stereo not given), the activity change, negative = inhibition in assay [1] worked out at 7.33%; in assay [2] it was 0%; in assay [3], 8.09%; in assay [4], 6.92%; in assay [5], 5.78%.

On to `CC(C)Cn1c(=O)c2cc(F)ccc2n2c(SCC(=O)Nc3cccc(Cl)c3)nnc12`, for which the activity change, negative = inhibition in assay [1] was 0.237%; in assay [2], 0%; in assay [3], 6.11%; in assay [4], -10.1%; in assay [5], 2.81%.

Turning to `Cn1c(=O)c2ccc(C(=O)NC3CCCCC3)cc2n2c(SCC(=O)Nc3ccc(F)cc3)nnc12`, the activity change, negative = inhibition in assay [1] was -2.3%; in assay [2] it was 1.01%; in assay [3] it was 1.2%; in assay [4], 2.11%; in assay [5], 4.01%.

As to `CC1=CCC2C(C)(C)CCCC2(C)C1CC12OC1C(O)C(CO)=CC2O` (stereo not given), the activity change, negative = inhibition was 0% in assay [1]; 13.8% in assay [2]; 5.12% in assay [3]; -5.85% in assay [4]; 9.93% in assay [5].

For the molecule `N#Cc1cnc(N2CC3CCC(C2)N3CC(F)(F)F)s1`, the activity change, negative = inhibition is 0.922% in assay [1]; 0.369% in assay [2]; -53% in assay [3]; -0.746% in assay [4]; -0.587% in assay [5].

Take `CC(C)Cn1c(=O)c2ccc(C(=O)NC3CCCC3)cc2n2c(=O)n(CC(=O)N(C)c3ccccc3)nc12`: the activity change, negative = inhibition in assay [1] was 1.37%; in assay [2], 0%; in assay [3], 2.42%; in assay [4], -0.383%; in assay [5] it was 4.03%.

As to `CCC(C)NC(=O)c1ccc2c(=O)n(C(C)C)c3nn(Cc4ccc(N5CCCC5=O)cc4)c(=O)n3c2c1` (stereo not given), the activity change, negative = inhibition was -2.26% in assay [1]; -7.6% in assay [2]; 6.92% in assay [3]; -17.2% in assay [4]; -4.71% in assay [5].

Take `CC[C@H]1CN(C(=O)N2CCOCC2)CC[C@H]1CC(=O)NCCOC`: the activity change, negative = inhibition was -0.471% in assay [1]; 0.642% in assay [2]; 0.662% in assay [3]; -6.42% in assay [4]; -2.44% in assay [5].

As to `CC(C)=CCC1(CO)CCCN(Cc2csc(C)n2)C1` (stereo not given), the activity change, negative = inhibition in assay [1] is -0.383%; in assay [2] it was 3.55%; in assay [3] it was 1.32%; in assay [4], -2.09%; in assay [5], -0.009%.

Consider `CC(=O)NC1CCN(C(=O)c2coc(COc3cccc(C(F)(F)F)c3)n2)C1` (stereo not given), for which the activity change, negative = inhibition in assay [1] was -3.18%; in assay [2] it was -9.11%; in assay [3], -2.09%; in assay [4] it was -13.2%; in assay [5] it was -11.7%.

Regarding `CC1(C(=O)NC2CCCCCCC2)Cn2c(cc3sccc32)C(=O)N1Cc1ccccc1Cl` (stereo not given), the activity change, negative = inhibition is 5.36% in assay [1]; -0.817% in assay [2]; 10.8% in assay [3]; 13.7% in assay [4]; 1.95% in assay [5].

Turning to `CC(=O)OC1C(OC(=O)c2ccccc2)C2C(C)(C)CC(=O)CC2(C)C23CCC(C)(C2)C(O)CC13` (stereo not given), the activity change, negative = inhibition in assay [1] was -5.54%; in assay [2], -13.8%; in assay [3], 0.974%; in assay [4], -25.1%; in assay [5], -8.6%.

For `Cc1ccc(NC(=O)CCc2nnc3n(CCCOC(C)C)c(=O)c4ccccc4n23)cc1C`, the activity change, negative = inhibition is -1.72% in assay [1]; 4.98% in assay [2]; 3.69% in assay [3]; 0.612% in assay [4]; -0.405% in assay [5].

Turning to `CCc1ccc(N2C(=O)c3cc(-c4ccc(OC)cc4)nn3CC2(C)C(=O)NCc2ccccc2OC)cc1` (stereo not given), the activity change, negative = inhibition in assay [1] is 3.8%; in assay [2] it was 4.32%; in assay [3], 3.48%; in assay [4], 3.03%; in assay [5], -1.41%.

`Cc1cc2ncc(C(=O)NCC(C)(C)NCC(=O)N3CCC[C@H]3C#N)cn2n1`: the activity change, negative = inhibition is -8.12% in assay [1]; -8.54% in assay [2]; 10.1% in assay [3]; -21.9% in assay [4]; -1.6% in assay [5].

With `C[S+](=O)([O-])N1CC2(CCCN2CC2CCCCC2)Cc2ccccc21` (stereo not given), the activity change, negative = inhibition is -8.21% in assay [1]; -8.19% in assay [2]; -14.5% in assay [3]; -17.8% in assay [4]; -7.79% in assay [5].

In the case of `C[C@H](Nc1cc2c(-c3ccc4c(c3)OCO4)noc2cn1)c1ccccc1`, the activity change, negative = inhibition in assay [1] is -8.03%; in assay [2], -21.1%; in assay [3], -5.18%; in assay [4] it was -33.5%; in assay [5], -82.8%.

With `CN1C(=O)c2cc(C(=O)NCc3ccco3)nn2CC1(C)C(=O)NC1CCCC1` (stereo not given), the activity change, negative = inhibition in assay [1] was determined as 9.59%; in assay [2], 0.161%; in assay [3] it was 6.14%; in assay [4], 10.1%; in assay [5], 3.8%.

In the case of `Cc1ccc(CNC(=O)C2(C)Cn3cnc(C(=O)NCc4ccccc4F)c3C(=O)N2C2CC2)cc1` (stereo not given), the activity change, negative = inhibition was -4.36% in assay [1]; 0.984% in assay [2]; -2.41% in assay [3]; -2.11% in assay [4]; -3.41% in assay [5].

Turning to `Cc1cc(F)ccc1NC(=O)Cn1nc2nc(Nc3ccc(F)cc3)ccn2c1=O`, the activity change, negative = inhibition was -1.91% in assay [1]; 0% in assay [2]; 8.76% in assay [3]; 0.914% in assay [4]; 2.3% in assay [5].

Turning to `CN(Cc1ccccc1)Cc1cc(C[C@H]2CNCC[C@H]2CC(=O)NCc2cccs2)no1`, the activity change, negative = inhibition in assay [1] is -9.55%; in assay [2], -15%; in assay [3], -11.5%; in assay [4] it was -17.1%; in assay [5], -14.7%.

For the molecule `O=C(NCCN1CCCC1)C1CCN(c2cnn(CC3CC3)c(=O)c2)C1` (stereo not given), the activity change, negative = inhibition in assay [1] is -4.37%; in assay [2], -4.26%; in assay [3], -25.2%; in assay [4] it was -10.7%; in assay [5], 9.65%.

For `COc1ccc(CN2C(=O)c3cc4ccc(OC)cc4n3CC2(C)C(=O)NCC2CCCO2)cc1` (stereo not given), the activity change, negative = inhibition in assay [1] amounted to 7.72%; in assay [2], 1.78%; in assay [3], 8%; in assay [4], 14.7%; in assay [5], 3.52%.

As to `Cc1ccccc1-c1nccc2c(=O)cc(C3=CCOCC3)oc12`, the activity change, negative = inhibition in assay [1] is -28.1%; in assay [2], -14%; in assay [3], -17.8%; in assay [4] it was -21.5%; in assay [5], 5.6%.

Regarding `CC1(C(=O)NC2CCCCCC2)Cn2c(cc3sccc32)C(=O)N1Cc1cccc(F)c1` (stereo not given), the activity change, negative = inhibition in assay [1] is 2.33%; in assay [2] it was 4.22%; in assay [3], 6.08%; in assay [4] it was -1.25%; in assay [5], 1.5%.

In the case of `COc1cccc(N2C(=O)c3cc4sccc4n3CC2(C)C(=O)NC2CCCC(C)C2C)c1` (stereo not given), the activity change, negative = inhibition in assay [1] is -4.81%; in assay [2], 0%; in assay [3] it was 1.72%; in assay [4] it was 3.01%; in assay [5], -0.978%.

With `C=C1CCC2[C@@](C)(C(=O)O)CCC[C@@]2(C)[C@@H]1CCc1ccoc1` (stereo not given in full), the activity change, negative = inhibition in assay [1] was -6.49%; in assay [2] it was -7.18%; in assay [3], 3.25%; in assay [4], -19.2%; in assay [5], -11.4%.

In the case of `CC1(C(=O)NC2CCCCC2)Cn2c(ccc2-c2ccco2)C(=O)N1Cc1cccnc1` (stereo not given), the activity change, negative = inhibition in assay [1] is -7.11%; in assay [2], -8.84%; in assay [3] it was 6.04%; in assay [4], -1.03%; in assay [5], -5.07%.

Consider `Cc1ccc(NC(=O)CN(C)S(=O)(=O)c2ccc3[nH]c4c(c3c2)CCCC4)c(Br)c1`, for which the activity change, negative = inhibition in assay [1] was -4.91%; in assay [2] it was 1.63%; in assay [3], -0.751%; in assay [4], -8.41%; in assay [5] it was -1.25%.
